Assay results reported in a compilation of properties of binary mixtures (doi:10.1016/j.molliq.2021.116575).
Some of these densities may be calculated back from excess volumes.

Experiment: xn = mol fraction of the nth substance listed
Settings: 101 kPa, x1 = 0.2

C[P+](c1ccccc1)(c1ccccc1)c1ccccc1.[Br-] + CC(=O)O
Settings | mass density [kg/m3]
293.2 K | 1244
303.2 K | 1237
308.2 K | 1233
313.2 K | 1230
318.2 K | 1226
323.2 K | 1223
333.2 K | 1216
338.2 K | 1212
343.2 K | 1208
348.2 K | 1205
363.2 K | 1194
